{
  "source": "PubChem BioAssay AID624418",
  "about": "(National Center for Advancing Translational Sciences (NCATS), 2012)",
  "note": "Screen size: about 410,000 compounds; about 530 (0.13%) were called active. Inconclusive means that the source gave no clear call. Such entries were picked first, then a sample of the others. Calls follow the shape of the dose curve; as a rule, active = well fitted inhibition curve with a large enough effect; inconclusive = small, poorly fitted or top-dose-only effect, or another doubt; inactive = no such curve, though single readings can be large or run the other way. Potencies of inconclusive entries are doubtful fits and often do not repeat. % is scaled to controls: 0 for no effect and ±100 for the full control effect; potency is read from the fitted curve at half-maximal effect.",
  "data": [
    {"test": "qHTS of GLP-1 Receptor Inverse Agonists: Cytotox Screen", "conditions": "HEK293 cAMP-luciferase reporter cells, luminescence, 24 h; activity change, negative = inhibition: at 38.3 µM (top of the series) unless noted", "outline": "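Step one: seed cells (200 cells/uL, DMEM with 10% Nu serum, 1% pen-strep). Step two: 12-hour incubation at 37 deg C. Step three: pin 23 nL compound, incubate 24 hr. Step four: add luciferase reagent, read luminescence 12 min later.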", "values": [
      {"compound": "CN(C(=O)CSc1nc2ccccc2n1Cc1cccc(C(F)(F)F)c1)c1ccccc1", "activity change, negative = inhibition": "inactive: -18%"},
      {"compound": "COc1cccc(NC(=O)CCN2C(=O)C3CC=CCC3C2=O)c1", "note": "(stereo not drawn)", "Potency": "inconclusive: 28.2 µM [inhibitor, single point]"},
      {"compound": "CCC1CCCCN1CCCNC(=O)c1ccc2nc(N3CCC(C)CC3)sc2c1", "note": "(stereo not drawn)", "Potency": "inconclusive: 28.2 µM [inhibitor, single point]"},
      {"compound": "COc1cc(OC)c2ccc(=O)oc2c1C(CCN1CCCC1)c1ccc2c(c1)OCO2", "note": "(stereo not drawn)", "Potency": "inconclusive: 2.24 µM [inhibitor, partial curve]"},
      {"compound": "COc1ccc(C=CC(C)=NNC(=O)c2ccncc2)cc1", "Potency": "inconclusive: 28.2 µM [inhibitor, single point]"},
      {"compound": "O=C(CSc1nc2ccccc2n1-c1ccccc1)Nc1ncc(Cl)cc1Cl", "activity change, negative = inhibition": "inactive: -8.88%"},
      {"compound": "COC(=O)c1ccc(COc2ccc(/C=N/NC(N)=S)cc2)o1", "Potency": "inconclusive: 10 µM [inhibitor, single point]"},
      {"compound": "CCOC(=O)c1nnc(-c2ccccc2)nc1Sc1c(Cl)cccc1Cl", "Potency": "inconclusive: 22.4 µM [inhibitor, single point]"},
      {"compound": "Cc1ccc(C2(CCNC(C)c3cccs3)CCOC(C(C)C)C2)cc1", "note": "(stereo not drawn)", "Potency": "inconclusive: 28.2 µM [inhibitor, single point]"},
      {"compound": "CC(C)c1ccc(NC(=S)NN(c2ccccc2)c2ccccc2)cc1", "Potency": "inconclusive: 10 µM [inhibitor, single point]"},
      {"compound": "O=C(c1[nH]ncc1-c1cccc(Br)c1)C1CO1", "note": "(stereo not drawn)", "Potency": "inconclusive: 28.2 µM [inhibitor, single point]"},
      {"compound": "Cc1csc(NC(=O)CSc2nnc(-c3ccccc3)o2)n1", "Potency": "inconclusive: 11.2 µM [inhibitor, single point]"},
      {"compound": "N#Cc1ncc(Cc2ccccc2)nc1C#N", "Potency": "inconclusive: 11.2 µM [inhibitor, partial curve, poor fit]"},
      {"compound": "COc1ccc(-c2nc(N=Nc3ccc(O)cc3)n[nH]2)cc1", "Potency": "inconclusive: 14.1 µM [inhibitor, partial curve, poor fit]"},
      {"compound": "CC(C)(C)NC(=O)C(c1ccc(O)cc1)N(Cc1ccco1)C(=O)Cn1nnc(-c2cccs2)n1", "note": "(stereo not drawn)", "Potency": "inconclusive: 31.6 µM [inhibitor, single point]"},
      {"compound": "CN(/N=C/c1cc(Br)cc(Br)c1O)c1cccc(C(F)(F)F)n1", "Potency": "inconclusive: 15.8 µM [inhibitor, single point]"},
      {"compound": "O=C(NC1CC1)c1cccc(NC(=O)c2cnn(-c3ccccc3)n2)c1", "Potency": "inconclusive: 31.6 µM [inhibitor, single point]"},
      {"compound": "O=C(Nc1ccccc1-c1nnc(SCc2ccccc2Cl)o1)c1ccccc1", "activity change, negative = inhibition": "inactive: -10.9%"},
      {"compound": "COCCCNc1ccn2nc(-c3cccc(OCc4ccccc4)c3)cc2n1", "activity change, negative = inhibition": "inactive: -3.98%"},
      {"compound": "CCc1nc(N2CCN(C(=O)CCl)CC2)c2c3c(sc2n1)CC(C)CC3", "note": "(stereo not drawn)", "Potency": "inconclusive: 10 µM [inhibitor, single point]"},
      {"compound": "CCCCC(=O)Oc1c(S(=O)(=O)c2ccccc2)c(C)nn1C(C)(C)C", "Potency": "inconclusive: 12.6 µM [inhibitor, single point]"},
      {"compound": "CC(=O)Nc1ccc(NC(=O)c2ccc(N(C)S(=O)(=O)c3ccc(C)cc3)cc2)cc1", "Potency": "inconclusive: 11.2 µM [inhibitor, single point]"},
      {"compound": "CC(=O)CSc1nsc(SCC(C)=O)c1C#N", "activity change, negative = inhibition": "inactive: -11.4%"},
      {"compound": "CCOc1ccc(NC(=O)C(=O)NCC2CCCN2CC)cc1", "note": "(stereo not drawn)", "activity change, negative = inhibition": "inactive: 7.6%"},
      {"compound": "CC(=O)N[C@@H](Cc1ccc(O)cc1)CN1C(N)=NC[C@@H]1CC(C)C", "Potency": "inconclusive: 28.2 µM [inhibitor, single point]"},
      {"compound": "CCNC(=S)N/N=C/c1ccco1", "Potency": "inconclusive: 11.2 µM [inhibitor, single point]"},
      {"compound": "CCc1ccc(C2c3c(-c4cc(C)ccc4O)n[nH]c3C(=O)N2Cc2cccnc2)cc1", "note": "(stereo not drawn)", "activity change, negative = inhibition": "inactive: -17.4%"},
      {"compound": "CN(C)c1ccc(/C=C(\\NC(=O)c2ccccc2)C(=O)NCc2ccncc2)cc1", "Potency": "inconclusive: 11.2 µM [inhibitor, partial curve, poor fit]"},
      {"compound": "O=C(NC(=S)NCc1ccccc1Cl)c1cccs1", "Potency": "inconclusive: 20 µM [inhibitor, single point]"},
      {"compound": "COc1ccccc1OCC(=O)/C=C1/N(C)c2ccccc2C1(C)C", "activity change, negative = inhibition": "inactive: 2.74%"},
      {"compound": "COc1ccc(C(=O)NC(=S)Nc2ccc(N3CCCC3)cc2)cc1OC", "Potency": "inconclusive: 11.2 µM [inhibitor, partial curve]"},
      {"compound": "COc1cccc(-c2nc3ccc(C(=O)N4CCCC(O)C4)cc3o2)c1", "note": "(stereo not drawn)", "activity change, negative = inhibition": "inactive: -1.99%"},
      {"compound": "O=C(OCn1ncc(Cl)c(Cl)c1=O)c1ccccc1Cl", "Potency": "inconclusive: 12.6 µM [inhibitor, single point]"},
      {"compound": "COc1ccccc1Nc1nc(NCc2ccco2)c2ccccc2n1", "Potency": "inconclusive: 22.4 µM [inhibitor, single point]"},
      {"compound": "S=C1NCCc2ccc(Cl)cc2C1c1ccccc1Cl", "note": "(stereo not drawn)", "Potency": "inconclusive: 11.2 µM [inhibitor, partial curve, poor fit]"},
      {"compound": "COc1ccc2[nH]c(C)c(CN3CCC(C)CC3)c(=O)c2c1", "Potency": "inconclusive: 10 µM [inhibitor, single point]"},
      {"compound": "Cc1nc2ccc(F)cc2cc1C(=O)NCC1CCCO1", "note": "(stereo not drawn)", "Potency": "inconclusive: 12.6 µM [inhibitor, single point]"},
      {"compound": "c1ccc(-n2c(-c3ccco3)nnc2-c2ccco2)cc1", "activity change, negative = inhibition": "inactive: -13.8%"},
      {"compound": "O=C1/C(=C/c2ccccc2F)SC(=S)N1CC(=O)N1CCCCC1c1cccnc1", "note": "(stereo not drawn)", "Potency": "inconclusive: 10 µM [inhibitor, partial curve, poor fit]"},
      {"compound": "CC(=O)N1CCN(C(=O)c2ccc3c(c2)OCCO3)CC1", "activity change, negative = inhibition": "inactive: -17.5%"},
      {"compound": "CC1(Cc2cc(Cl)ccc2C(F)(F)F)C(=O)Nc2ccc(-c3ccc(F)c(Cl)c3)cc21", "note": "(stereo not drawn)", "Potency": "active: 11.2 µM"},
      {"compound": "O=C1CC(NC(=O)C(F)(F)F)=NN1c1ccccc1", "Potency": "inconclusive: 12.6 µM [inhibitor, single point]"},
      {"compound": "CC1(C)CC(NC(=O)N2c3ccccc3Sc3ccccc32)CC(C)(C)N1", "Potency": "inconclusive: 20 µM [inhibitor, single point]"},
      {"compound": "O=C(O)c1cc([N+](=O)[O-])ccc1NCCO", "Potency": "inconclusive: 7.94 µM [inhibitor, partial curve, poor fit]"},
      {"compound": "CN1CCN(CCCOc2ccc(-c3ccccc3)cc2)CC1", "Potency": "inconclusive: 12.6 µM [inhibitor, single point]"},
      {"compound": "CCOCCCNC(=O)C(c1ccc(C)cc1)N(Cc1cccs1)C(=O)c1ccccc1O", "note": "(stereo not drawn)", "Potency": "inconclusive: 11.2 µM [inhibitor, single point]"},
      {"compound": "CCN(CC)CC(C)OC(=O)COc1ccc(OC)cc1", "note": "(stereo not drawn)", "Potency": "inconclusive: 0.501 µM [inhibitor, full curve, poor fit]"},
      {"compound": "CCN1CCN(c2cc(C)c3cc(NC(=O)c4cncc(Br)c4)ccc3n2)CC1", "Potency": "inconclusive: 28.2 µM [inhibitor, single point]"},
      {"compound": "CC(C)n1c(C(=O)OCC(=O)NCc2ccc3c(c2)OCO3)cc2occc21", "Potency": "inconclusive: 6.31 µM [inhibitor, partial curve]"},
      {"compound": "CC(C)Oc1cc(F)ccc1-c1cc(C(=O)Nc2ccc(C(C)C)cc2)[nH]n1", "activity change, negative = inhibition": "inactive: -2.6%"},
      {"compound": "COc1ccc(N)cc1NC(=O)CN1CCCC1", "Potency": "inconclusive: 17.8 µM [inhibitor, single point]"},
      {"compound": "C[C@H](CO)N1C[C@H](C)[C@@H](CN(C)Cc2ccc(Cl)c(Cl)c2)Oc2c(NS(=O)(=O)c3ccc(F)cc3)cccc2C1=O", "Potency": "inconclusive: 28.2 µM [inhibitor, single point]"},
      {"compound": "Cc1ccc(NC(=S)NCCSc2ccc(Cl)cc2)cc1", "Potency": "inconclusive: 28.2 µM [inhibitor, single point]"},
      {"compound": "C/C(=N\\NC(=O)C1CC1)c1ccc(C)c(C)c1", "Potency": "inconclusive: 31.6 µM [inhibitor, single point]"},
      {"compound": "CCOc1ccc(NS(=O)(=O)c2ccc3[nH]cc(C(=O)NCc4ccccc4)c(=O)c3c2)cc1", "activity change, negative = inhibition": "inactive: 3.69%"},
      {"compound": "CN1C(=S)SC(N(O)C(=O)Nc2ccc(Cl)c(Cl)c2)C1(C)C", "note": "(stereo not drawn)", "activity change, negative = inhibition": "inactive: -2.15%"},
      {"compound": "CN(C)c1ccc(C=c2c3ccccc3n3c2cc(-c2ccccc2)[n+]3C)cc1", "Potency": "inconclusive: 14.1 µM [inhibitor, partial curve, poor fit]"},
      {"compound": "COc1ccc(-n2c(=O)c3ccccc3n(CC(=O)OCc3ccccc3)c2=O)cc1OC", "Potency": "inconclusive: 28.2 µM [inhibitor, single point]"},
      {"compound": "Cc1cc(C)c2nc(N3CCN(C(=O)c4ccco4)CC3)sc2c1", "activity change, negative = inhibition": "inactive: 1.01%"},
      {"compound": "O=c1cc(C=NNc2ccc([N+](=O)[O-])cc2)[nH]c(=O)[nH]1", "Potency": "inconclusive: 12.6 µM [inhibitor, single point]"},
      {"compound": "CSc1ccc(COC(=O)c2cc([N+](=O)[O-])ccc2N2CCOCC2)cc1", "Potency": "inconclusive: 31.6 µM [inhibitor, partial curve, poor fit]"},
      {"compound": "Cc1cc(C(=O)CCl)c(C)n1CC1COc2ccccc2O1", "note": "(stereo not drawn)", "Potency": "inconclusive: 11.2 µM [inhibitor, single point]"},
      {"compound": "CCOc1cccc2sc(N(CCCN(C)C)C(=O)c3ccc(S(=O)(=O)N4CCCCCC4)cc3)nc12", "Potency": "inconclusive: 12.6 µM [inhibitor, single point]"},
      {"compound": "CC(/C=C/c1cccc([N+](=O)[O-])c1)=N\\NC(=O)c1ccncc1", "activity change, negative = inhibition": "inactive: -7.48%"},
      {"compound": "Cc1ccc(C(c2ccccc2)c2c(C)[nH]c3ccccc23)s1", "note": "(stereo not drawn)", "Potency": "inconclusive: 11.2 µM [inhibitor, partial curve, poor fit]"},
      {"compound": "COc1ccc(Cc2[nH]n3c(=O)cc(C(C)C)nc3c2-c2ccccc2)cc1", "Potency": "inconclusive: 10 µM [inhibitor, partial curve]"},
      {"compound": "CCN1CCN(C(=O)Cn2ncc3c4ccccc4n(Cc4ccccc4)c3c2=O)CC1", "activity change, negative = inhibition": "inactive: -18.6%"},
      {"compound": "Cc1cccc(CNc2ccc(C(CC(N)=O)NC(=O)Cc3cccc4ccccc34)cc2[N+](=O)[O-])c1", "note": "(stereo not drawn)", "Potency": "inconclusive: 11.2 µM [inhibitor, single point]"}
    ]}
  ]
}
